According to the supplement of paper PMC8728848:
The other results are listed elsewhere or left out.

What was measured:
Assay in all cases: glycan array binding signal (z-score within array); higher = stronger binding
Details in all cases: glycan notation: IUPAC condensed, linker removed
[1] = molecular target: Gal(b1-3)GlcNAc(b1-2)Man(a1-3)[Gal(b1-3)GlcNAc(b1-2)Man(a1-6)]Man(b1-4)GlcNAc(b1-4)[Fuc(a1-6)]GlcNAc
Procedure, shortened: (§1)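 Glycan array binding is given as a within-array Z-score, which can be read as non-binding when negative. The arrays, 3228 of them, came from the Consortium for Functional Glycomics database and were retained only where the protein sequence was available. Z-scores were averaged across arrays of the same protein sequence at different concentrations or buffers and across linkers.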

[2] = molecular target: Gal(b1-3)GlcNAc(b1-2)Man(a1-3)[GlcNAc(b1-4)][Gal(b1-3)GlcNAc(b1-2)Man(a1-6)]Man(b1-4)GlcNAc(b1-4)GlcNAc
Procedure, shortened: as §1

[3] = molecular target: Gal(b1-3)GlcNAc(b1-2)[Gal(b1-3)GlcNAc(b1-6)]Man(a1-6)[Gal(b1-3)GlcNAc(b1-2)Man(a1-3)]Man(b1-4)GlcNAc(b1-4)GlcNAc
Procedure, shortened: as §1

[4] = molecular target: Gal(b1-3)GlcNAc(b1-3)Gal(b1-3)GlcNAc
Procedure, shortened: as §1

[5] = molecular target: Gal(b1-3)GlcNAc(b1-3)Gal(b1-4)Glc
Procedure, shortened: as §1

[6] = molecular target: Gal(b1-3)GlcNAc(b1-3)Gal(b1-4)GlcNAc
Procedure, shortened: as §1

[7] = molecular target: Gal(b1-3)GlcNAc(b1-3)Gal(b1-4)GlcNAc(b1-2)Man(a1-3)[Gal(b1-3)GlcNAc(b1-3)Gal(b1-4)GlcNAc(b1-2)Man(a1-6)]Man(b1-4)GlcNAc(b1-4)GlcNAc
Procedure, shortened: as §1

[8] = molecular target: Gal(b1-3)GlcNAc(b1-3)Gal(b1-4)GlcNAc(b1-2)[Gal(b1-3)GlcNAc(b1-3)Gal(b1-4)GlcNAc(b1-6)]Man(a1-6)[Gal(b1-3)GlcNAc(b1-3)Gal(b1-4)GlcNAc(b1-2)Man(a1-3)]Man(b1-4)GlcNAc(b1-4)[Fuc(a1-6)]GlcNAc
Procedure, shortened: as §1

[9] = molecular target: Gal(b1-3)GlcNAc(b1-3)Gal(b1-4)GlcNAc(b1-3)Gal(b1-4)GlcNAc(b1-2)[Gal(b1-3)GlcNAc(b1-3)Gal(b1-4)GlcNAc(b1-3)Gal(b1-4)GlcNAc(b1-6)]Man(a1-6)[Gal(b1-3)GlcNAc(b1-3)Gal(b1-4)GlcNAc(b1-3)Gal(b1-4)GlcNAc(b1-2)Man(a1-3)]Man(b1-4)GlcNAc(b1-4)[Fuc(a1-6)]GlcNAc
Procedure, shortened: as §1

[10] = molecular target: Gal(b1-3)GlcNAc(b1-3)Gal(b1-4)GlcNAc(b1-6)[Gal(b1-3)GlcNAc(b1-3)]Gal(b1-4)Glc
Procedure, shortened: as §1

[11] = molecular target: Gal(b1-3)GlcNAc(b1-3)Gal(b1-4)[Fuc(a1-3)]GlcNAc
Procedure, shortened: as §1

[12] = molecular target: Gal(b1-3)GlcNAc(b1-3)Gal(b1-4)[Fuc(a1-3)]GlcNAc(b1-6)[Gal(b1-3)GlcNAc(b1-3)]Gal(b1-4)Glc
Procedure, shortened: as §1

[13] = molecular target: Gal(b1-3)GlcNAc(b1-3)GalNAc
Procedure, shortened: as §1

[14] = molecular target: Gal(b1-3)GlcNAc(b1-6)Gal(b1-4)GlcNAc
Procedure, shortened: as §1

[15] = molecular target: Gal(b1-3)GlcNAc(b1-6)GalNAc
Procedure, shortened: as §1

[16] = molecular target: Gal(b1-3)GlcNAc(b1-6)[Gal(b1-3)]GalNAc
Procedure, shortened: as §1

[17] = molecular target: Gal(b1-3)GlcNAc6S
Procedure, shortened: as §1

[18] = molecular target: Gal(b1-3)[Fuc(a1-4)]GlcNAc
Procedure, shortened: as §1

[19] = molecular target: Gal(b1-3)[Fuc(a1-4)]GlcNAc(b1-2)Man
Procedure, shortened: as §1

[20] = molecular target: Gal(b1-3)[Fuc(a1-4)]GlcNAc(b1-2)Man(a1-3)[Gal(b1-3)[Fuc(a1-4)]GlcNAc(b1-2)Man(a1-6)]Man(b1-4)GlcNAc(b1-4)[Fuc(a1-6)]GlcNAc
Procedure, shortened: as §1

[21] = molecular target: Gal(b1-3)[Fuc(a1-4)]GlcNAc(b1-3)Gal(b1-3)[Fuc(a1-4)]GlcNAc
Procedure, shortened: as §1

[22] = molecular target: Gal(b1-3)[Fuc(a1-4)]GlcNAc(b1-3)Gal(b1-4)[Fuc(a1-3)]GlcNAc
Procedure, shortened: as §1

[23] = molecular target: Gal(b1-3)[Fuc(a1-4)]GlcNAc(b1-6)GalNAc
Procedure, shortened: as §1

[24] = molecular target: Gal(b1-3)[GlcNAc(b1-6)]GalNAc
Procedure, shortened: as §1

[25] = molecular target: Gal(b1-3)[Neu5Ac(a2-6)]GalNAc
Procedure, shortened: as §1

[26] = molecular target: Gal(b1-3)[Neu5Ac(a2-6)]GlcNAc(b1-4)Gal(b1-4)Glc
Procedure, shortened: as §1

[27] = molecular target: Gal(b1-3)[Neu5Ac(b2-6)]GalNAc
Procedure, shortened: as §1

[28] = molecular target: Gal(b1-4)Gal
Procedure, shortened: as §1

[29] = molecular target: Gal(b1-4)GalNAc(a1-3)[Fuc(a1-2)]Gal(b1-4)GlcNAc
Procedure, shortened: as §1

[30] = molecular target: Gal(b1-4)GalNAc(b1-3)[Fuc(a1-2)]Gal(b1-4)GlcNAc
Procedure, shortened: as §1

[31] = molecular target: Gal(b1-4)Glc
Procedure, shortened: as §1

[32] = molecular target: Gal(b1-4)Glc6S
Procedure, shortened: as §1

[33] = molecular target: Gal(b1-4)GlcNAc
Procedure, shortened: as §1

[34] = molecular target: Gal(b1-4)GlcNAc(a1-6)Gal(b1-4)GlcNAc
Procedure, shortened: as §1

[35] = molecular target: Gal(b1-4)GlcNAc(b1-2)Man
Procedure, shortened: as §1

[36] = molecular target: Gal(b1-4)GlcNAc(b1-2)Man(a1-3)Man(b1-4)GlcNAc(b1-4)GlcNAc
Procedure, shortened: as §1

[37] = molecular target: Gal(b1-4)GlcNAc(b1-2)Man(a1-3)[Gal(b1-4)GlcNAc(b1-2)Man(a1-6)]Man(b1-4)GlcNAc(b1-4)GlcNAc
Procedure, shortened: as §1

B1: GS7807P-bth-537-23-537 (Bacteroides thetaiotaomicron) (protein)
chain: NYENINSNPYEAPDLSADGYALGSAMNNLAGCVVSPDVNTAQFTDCLLGGPLGGYFADSNAGFTETISNFNPKDDWSRVFLKSDKIIPTLYSNLTQVKLVSQNTNDPVPYAIAQVIKVAAMHRVTDAFGPIPYSQIGANGEIATPYDSQEVTYNTFFDELNAAIATLNENSNEQLVPTADYIYKGDVKKWIRFANSLKLRLAIRIAYANPVKAQQMAEEAVNPANGGVIESNADNATWNYFETSQNPIYVATRYNQVQTSDHGGVPCLTGGDTHAAADIICYMNGYKDNRREKFFTKSEWAGQDYVGMRRGIVIPELKTTGHKYSGVNIAPTSPLYWMNAAEVAFLRAEGQAVFNFSMGGTAESFYNQGIRLSFEQWGADGVEDYLKDDVNKPTAYTDPAGTNTYQNALSNITIKWNDSADKEEKQERIIVQKWIANWQLGNEAWADFRRTGYPKLIPVKENKSGGVVDSEKGARRMPYPLDEFVSNKANVEYAIANYLHGADNMATDVWWASKK
glycan array binding signal (z-score) [1]: 2.17
glycan array binding signal (z-score) [2]: -0.124
glycan array binding signal (z-score) [3]: 0.143
glycan array binding signal (z-score) [4]: -0.027
glycan array binding signal (z-score) [5]: -0.329
glycan array binding signal (z-score) [6]: -0.35
glycan array binding signal (z-score) [7]: -0.327
glycan array binding signal (z-score) [8]: 1.47
glycan array binding signal (z-score) [9]: 0.224
glycan array binding signal (z-score) [10]: -0.261
glycan array binding signal (z-score) [11]: -0.051
glycan array binding signal (z-score) [12]: 1.1
glycan array binding signal (z-score) [13]: 1.12
glycan array binding signal (z-score) [14]: -0.152
glycan array binding signal (z-score) [15]: 1.42
glycan array binding signal (z-score) [16]: 0.214
glycan array binding signal (z-score) [17]: 0.073
glycan array binding signal (z-score) [18]: -0.295
glycan array binding signal (z-score) [19]: 0.354
glycan array binding signal (z-score) [20]: 0.989
glycan array binding signal (z-score) [21]: -0.304
glycan array binding signal (z-score) [22]: -0.372
glycan array binding signal (z-score) [23]: 1.8
glycan array binding signal (z-score) [24]: -0.029
glycan array binding signal (z-score) [25]: -0.29
glycan array binding signal (z-score) [26]: 0.182
glycan array binding signal (z-score) [27]: 0.133
glycan array binding signal (z-score) [28]: 0.593
glycan array binding signal (z-score) [29]: -0.108
glycan array binding signal (z-score) [30]: -0.339
glycan array binding signal (z-score) [31]: -0.384
glycan array binding signal (z-score) [32]: 0.91
glycan array binding signal (z-score) [33]: 0.123
glycan array binding signal (z-score) [34]: -0.34
glycan array binding signal (z-score) [35]: -0.348
glycan array binding signal (z-score) [36]: 0.315
glycan array binding signal (z-score) [37]: 0.253
